Results: PubChem BioAssay AID1745853 (National Center for Advancing Translational Sciences (NCATS), 2022)
This is one part of the list. The main result of the screen is listed elsewhere. These columns were measured beside it and carry no call.

Legend:
Assay in all cases: Primary Screen for Target Class Profiling of Small Molecule Inhibitors of Methyltransferases
[1] = molecular target: Glycine N-methyltransferase (Homo sapiens) (UniProt Q14749); settings: purified enzyme, MTase-Glo SAH luminescence; measured here: GNMT inhibition; at 40 µM; stronger effect = lower value
Procedure, shortened: (§1)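 Each enzyme was reacted with SAM and its substrate, with compounds tested once at 40 uM; SAH formed was read by MTase-Glo luminescence.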

[2] = molecular target: Guanidinoacetate N-methyltransferase (Homo sapiens) (UniProt Q14353); settings: purified enzyme, MTase-Glo SAH luminescence; measured here: GAMT inhibition; at 40 µM; stronger effect = lower value
Procedure, shortened: as §1

[3] = molecular target: Histamine N-methyltransferase (Homo sapiens) (UniProt P50135); settings: purified enzyme, MTase-Glo SAH luminescence; measured here: HNMT inhibition; at 40 µM; stronger effect = lower value
Procedure, shortened: as §1

[4] = molecular target: Nicotinamide N-methyltransferase (Homo sapiens) (UniProt P40261); settings: purified enzyme, MTase-Glo SAH luminescence; measured here: NNMT inhibition; at 40 µM; stronger effect = lower value
Procedure, shortened: as §1

[5] = molecular target: Phenylethanolamine N-methyltransferase (Homo sapiens) (UniProt P11086); settings: purified enzyme, MTase-Glo SAH luminescence; measured here: PNMT inhibition; at 40 µM; stronger effect = lower value
Procedure, shortened: as §1
% is scaled to controls: 0 for no effect and ±100 for the full control effect.

| Structure (SMILES) | activity change, negative = inhibition [1] | activity change, negative = inhibition [2] | activity change, negative = inhibition [3] | activity change, negative = inhibition [4] | activity change, negative = inhibition [5] |
| --- | --- | --- | --- | --- | --- |
| O=C(Cc1ccc2c(c1)OCO2)N1CCOCC2(CN(Cc3ccccc3)C2)C1 | -8.34% | -13.1% | -8.39% | -19.4% | -11.7% |
| CCCCS(=N)(=O)CCC(N)C(=O)O (configuration not stated) | -10.2% | -2.25% | -2.11% | -12.4% | -4.89% |
| CCOCCCNC(=O)C1(C)Cn2c(ccc2-c2ccco2)C(=O)N1c1ccc(OC)c(OC)c1 (configuration not stated) | 2.36% | 0% | 10.4% | 13.8% | 3.82% |
| CC(=O)O[C@H]1CC2(C)[C@@H](C[C@@H](O)[C@H]3[C@@]4(C)CC[C@@H](O)[C@@H](C)[C@@H]4CC[C@@]32C)C1=C(CCC=C(C)C)C(=O)O (some centres not stated) | -4.37% | 5.5% | -0.924% | -7.43% | 2.05% |
| CCOc1cc(OCC)c2c(-c3ccccc3)cc(=O)oc2c1 | -50.5% | -35.1% | -60.5% | -35.3% | -72.3% |
| CCc1cccc(NC(=O)Cn2c(=O)oc3cc(S(=O)(=O)N4CCCCC4)ccc32)c1 | 0.196% | 0.482% | 6.95% | 1.67% | -31% |
| CC(C)C(=O)N1CCC2(CC1)OC(=O)N(Cc1ccccc1C#N)C2(C)c1ccccc1 (configuration not stated) | -7.55% | -11.2% | -22.9% | -21.1% | -10.3% |
| O=C(CSc1nc2c(c(=O)n1-c1ccccc1)SCC2)Nc1ccc(-c2ccccc2)cn1 | -16.7% | -9.92% | -4.04% | -27.4% | -8.46% |
| CCCOc1ccc(CN2C(=O)c3cc4occc4n3CC2(C)C(=O)NC2CCC(C)CC2)cc1 (configuration not stated) | -4.11% | 0.391% | -5.83% | -4.61% | -0.711% |
| COc1cccc(OC)c1OCCNCC1CSc2ccccc2O1 (configuration not stated) | -2.86% | 4.49% | -2.84% | -9.7% | -1.49% |
| Fc1ccc(C2Nc3c(Cl)cccc3C3C=CCC32)cc1 (configuration not stated) | -8.07% | 2.08% | -3.84% | -9.05% | -5.61% |
| COc1ccc(NC(=O)Cn2c(=O)oc3cc(S(=O)(=O)N4CCCC4)ccc32)c(OC)c1 | 11.9% | 2.34% | 12.3% | 7.58% | 7.26% |
| COc1ccc(C2Sc3ccccc3N(CCN(C)C)C(=O)C2OC(C)=O)cc1 (configuration not stated) | -5.78% | – | 7.74% | – | – |
| O=c1[nH]c2ccc(S(=O)(=O)Nc3ccc(F)c(F)c3)cc2[nH]1 | 2.54% | 0% | -3.27% | -2.72% | -10.4% |
| COc1ccc([C@H]2C[C@@H](O)[C@@H](O)[C@@H]2NC(=O)c2ccccn2)cc1 | -3.6% | 1.61% | 2.31% | -1.69% | 17.9% |
| CC(=O)Nc1c2n(c3ccccc13)CC(C)(C(=O)NC1CCCC1)N(Cc1ccc(Cl)cc1)C2=O (configuration not stated) | -12.9% | -0.223% | -2.6% | -5.54% | -0.525% |
| CCCN1C(=O)c2cc(C(=O)NCc3cccc(OC)c3)nn2CC1(C)C(=O)NC1CCCC1 (configuration not stated) | -2.63% | -0.127% | -2.78% | -4.58% | -3.65% |
| CC1OC(O[C@H]2[C@@H](O)C[C@@]3(C)C([C@H](O)C[C@]4(C)C3CC=C3C5CC(C)(C)CC[C@]5(C(=O)OC5OC(CO)C(O)C(O)C5OC5OCC(OC6OCC(OC7OCC(O)C(O)C7O)C(O)C6O)C(OC6OCC(O)(CO)C6O)C5O)CC[C@]34C)[C@]2(C)CO)C(O)C(O)C1O (some centres not stated) | 0.962% | 9.52% | 12.1% | -4.38% | 8.35% |
